From the supplement of paper PMC12217912
The other results are listed elsewhere or left out. Sequences were assembled here from the parent chain. Values near 0.05 are background.

B1: TEV protease; numbered along this chain (parent)
chain: MGESLFKGPRDYNPISSSICHLTNESDGHTTSLYGIGFGPFIITNKHLFRRNNGTLVVQSLHGVFKVKDTTTLQQHLVDGRDMIIIRMPKDFPPFPQKLKFREPQREERICLVTTNFQTKSMSSMVSDTSCTFPSGDGIFWKHWIQTKDGQCGSPLVSTRDGFIVGIHSASNFTNTNNYFTSVPKNFMELLTNQEAQQWVSGWRLNADSVLWGGHKVFMVKPEEPFQPVKEATQL

Variants of: B1
Assay: raw area under fraction-flipped curve 0-4 h after induction (AUC4h, not background-subtracted), DNA-recorder readout of cleavage of the substrate (dimensionless); higher = more cleavage of the substrate by the protease variant
Conditions: temperature: 34 °C; time window: 0-4 h after rhamnose induction
Method: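 In vivo DNA recorder in E. coli TOP10(DE3) ΔrhaA at 34 °C. Each TEVp single-site mutant (parent TEVp 0) is paired with a single-site variant of the 7-mer TEVs (canonical ENLYFQ|S). The substrate sits between flexible linkers in a Bxb1-sfGFP-TEVs-SsrA fusion, so cleavage stabilises Bxb1 and speeds flipping of a recombination array, read by NGS. The value is the raw area under the fraction-flipped curve over 0-4 h after rhamnose induction (AUC4h), with ≥20 reads per time point. It is not background-subtracted; inactive controls average about 0.047.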
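Further: Bxb1 expression induced with 0.2% (w/v) L-rhamnose at OD600 near 0.5, cultures sampled hourly, flipped fraction per protease–substrate barcode pair counted by paired-end Illumina sequencing.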

Variant | area with substrate ENLYFQC | area with substrate ENLYFQF | area with substrate ENLYFQG | area with substrate ENLYFQH | area with substrate ENLYFQI | area with substrate ENLYFQR | area with substrate ENLYFQS | area with substrate ENLYFQT | area with substrate ENLYFQV | area with substrate ENLYFQY | area with substrate ENLYFQL | area with substrate ENLYFQM | area with substrate ENLYFQN | area with substrate ENLYFQP | area with substrate ENLYFQD | area with substrate ENLYFQQ | area with substrate ENLYFQW | area with substrate ENLYFQA | area with substrate ENLYFQE | area with substrate ENLYFQK
L5P | 0.0403 | 0.0577 | 0.0649 | 0.076 | 0.0755 | 0.0666 | 0.0659 | 0.0668 | 0.0614 | 0.0522 |  |  |  |  |  |  |  |  |  | 
P9C | 0.13 | 0.0731 |  |  | 0.0444 | 0.0671 | 0.101 | 0.0667 |  | 0.093 | 0.0667 | 0.085 | 0.0879 | 0.0496 |  |  |  |  |  | 
V67A | 0.106 | 0.0905 | 0.063 | 0.0918 | 0.0543 | 0.0539 | 0.0944 | 0.0728 |  | 0.0761 | 0.0552 |  | 0.0741 |  | 0.0642 | 0.0689 | 0.0654 |  |  | 
E223Y | 0.0859 |  | 0.0876 |  | 0.0595 | 0.0511 | 0.0964 | 0.0623 |  |  | 0.0541 | 0.0774 | 0.0868 |  |  | 0.0574 |  | 0.097 |  | 
E223N | 0.106 | 0.0937 |  | 0.0777 | 0.0563 |  | 0.0889 | 0.074 |  |  | 0.0498 |  | 0.065 | 0.0586 |  | 0.068 |  | 0.1 | 0.0589 | 0.0572
K68Y | 0.141 |  | 0.113 |  | 0.077 | 0.0604 | 0.0945 |  |  | 0.0851 |  |  |  | 0.0497 |  |  | 0.0638 |  |  | 0.0614
P222I | 0.0969 | 0.0629 | 0.0924 |  | 0.0531 | 0.0642 | 0.0927 | 0.0654 | 0.0585 | 0.0587 | 0.0583 | 0.0958 | 0.0748 |  | 0.0846 | 0.0792 | 0.0718 | 0.0887 |  | 
K66D | 0.104 |  | 0.0703 | 0.0673 | 0.0643 | 0.105 | 0.0975 | 0.0595 |  | 0.079 | 0.0581 | 0.0911 | 0.0571 | 0.0382 | 0.0757 | 0.0769 | 0.0584 |  |  | 0.0604
G37S | 0.0858 |  | 0.0828 | 0.0675 | 0.0749 | 0.0604 | 0.0797 | 0.0347 | 0.0437 | 0.061 | 0.0517 | 0.0617 | 0.0541 |  | 0.0577 |  | 0.0548 |  |  | 0.0518
P225K | 0.106 |  | 0.11 | 0.0777 |  | 0.0622 | 0.101 | 0.0536 | 0.0618 | 0.0771 | 0.0604 | 0.0837 | 0.108 |  | 0.0784 |  |  | 0.0697 |  | 0.0631
P225C | 0.101 |  | 0.0818 | 0.0786 | 0.0595 | 0.0603 | 0.097 | 0.0649 | 0.0636 | 0.0789 | 0.0712 | 0.0848 | 0.0719 | 0.0861 |  | 0.0492 |  | 0.0808 |  | 0.0544
T70R | 0.0579 |  | 0.0766 |  | 0.101 | 0.0556 | 0.0661 |  | 0.0537 | 0.062 | 0.0638 | 0.0745 | 0.0563 |  | 0.0631 |  |  |  | 0.0748 | 
D11F | 0.096 |  | 0.103 | 0.0765 | 0.046 | 0.0608 | 0.0973 | 0.0594 |  | 0.0714 | 0.0534 | 0.116 | 0.0623 | 0.0565 |  | 0.0691 | 0.0536 |  |  | 0.0507
H29T | 0.103 | 0.0636 | 0.165 | 0.072 | 0.0573 | 0.0481 | 0.107 |  |  | 0.079 | 0.0737 | 0.0863 | 0.122 | 0.0688 |  |  | 0.0858 |  |  | 0.023
V229Q | 0.12 |  | 0.0838 |  | 0.064 | 0.0405 | 0.092 | 0.0829 |  |  | 0.0519 |  | 0.0411 |  | 0.0661 |  | 0.0629 | 0.0786 |  | 
Q75A | 0.0895 | 0.069 | 0.0909 |  | 0.0457 | 0.0564 | 0.105 |  |  |  | 0.0663 | 0.0828 | 0.0778 | 0.0661 |  | 0.0883 | 0.0677 |  |  | 0.0588
Q234T | 0.109 | 0.102 | 0.0743 |  | 0.0662 | 0.0629 | 0.0989 | 0.0604 | 0.0715 | 0.0738 | 0.0639 | 0.0678 | 0.0789 | 0.0508 | 0.0857 | 0.0711 | 0.0635 | 0.0857 |  | 0.0633
Q234S | 0.129 | 0.0792 | 0.084 | 0.0744 | 0.072 | 0.0612 | 0.102 | 0.0707 | 0.0424 | 0.0788 | 0.062 | 0.0921 | 0.0748 |  | 0.0756 |  | 0.0766 | 0.168 |  | 0.058
T233Q | 0.0894 | 0.0938 | 0.0796 | 0.08 |  | 0.0642 | 0.105 |  |  |  | 0.0602 | 0.135 | 0.0787 |  |  |  | 0.0643 | 0.133 | 0.0638 | 0.0622
T233E |  |  |  | 0.0888 | 0.0742 |  | 0.109 |  | 0.0561 |  |  |  | 0.105 | 0.0347 |  |  | 0.043 | 0.0826 |  | 
T233M | 0.0889 |  | 0.0919 |  | 0.0481 | 0.045 | 0.0993 | 0.0704 |  |  |  | 0.0689 | 0.0633 |  |  |  | 0.0665 | 0.0847 |  | 0.0514
N45P | 0.0669 |  | 0.094 |  | 0.0467 |  | 0.0816 |  |  | 0.0372 | 0.044 | 0.0693 | 0.087 |  | 0.0412 |  |  |  |  | 0.0861
I15P | 0.084 |  | 0.072 | 0.0555 | 0.055 | 0.0541 | 0.0797 |  | 0.0534 |  | 0.0577 |  | 0.0703 | 0.0346 | 0.0677 |  | 0.0594 |  |  | 
I43D | 0.06 |  | 0.0448 | 0.0082 | 0.0399 | 0.0405 | 0.0422 | 0.0406 |  | 0.049 | 0.0458 | 0.0397 | 0.0442 | 0.0453 | 0.0473 | 0.0347 | 0.0415 |  |  | 0.0457
H62Y | 0.119 | 0.0693 | 0.155 |  | 0.0527 | 0.0596 | 0.102 |  |  | 0.0696 | 0.0726 | 0.121 | 0.0728 | 0.0516 | 0.078 |  |  |  |  | 0.0726
P40Q | 0.13 |  | 0.123 | 0.113 | 0.0488 | 0.0608 | 0.11 | 0.0722 | 0.0649 |  | 0.0544 | 0.0729 | 0.0927 | 0.0806 |  |  | 0.0541 |  |  | 0.0633
